Assay results from PubChem BioAssay (NCATS).
Several values for one entry are separate records, joined by “and”; a condition that tells them apart may be missing. Equal entries are not always repeated. Some of the results follow. The main result of the screen is listed elsewhere. These columns were measured beside it and carry no call. Most of these compounds were active or inconclusive in the main read-out, so they are no random draw. The note in brackets gives the kind of curve behind each potency; many fits are weak.

assay: qHTS Assay for Lipid Storage Modulators (AID 1519); conditions: Drosophila S3 cells, BODIPY lipid droplet/cell ratio, laser cytometry; measured here: lipid (BODIPY) channel AC50; cells loaded with oleic acid
Procedure, shortened: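 Cells seeded at 5,000 per well were treated with compounds over a concentration series and loaded with oleic acid (400 uM, as added). Lipid droplet fluorescence (488 nm excitation, 500-530 nm channel) was read by laser-scanning cytometry and normalized to 20 uM Triacsin C.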
Tags tell the direction and shape of the fitted curve.

SMILES | AC50
COc1ccc(C(=O)N2CCC3(CCN(C(=O)Nc4ccccc4)CC3)CC2)cc1 | 0.794 µM [rising, full curve]
COC(=O)N1CCC2(CCCN(Cc3cc(C(F)(F)F)cc(C(F)(F)F)c3)C2)CC1 | 17.8 µM [rising, partial curve]
c1csc(CNc2ccnc(-c3ccc4c(c3)OCO4)n2)c1 | 0.355 µM [rising, full curve]
CS(=O)(=O)Nc1cccc(-c2cc(NCc3cccs3)ncn2)c1 | 1.41 µM [rising, full curve]
COc1cc2c(C)c3c4c(cc(OC)c(OC)c4c2cc1OC)CCN3C | 6.31 µM [rising, full curve]
Cc1ccccc1-c1nc(N(C)C)c2ccccc2n1 | 1.26 µM [rising, full curve, poor fit]
O=c1cnc2cnc(Oc3ccccc3)nc2n1Cc1ccc(F)cc1 | 17.8 µM [rising, partial curve, poor fit]
COc1ccc(Oc2ncc3nc(-c4cn(C)c5ccccc45)c(=O)n(C)c3n2)cc1 | 7.08 µM [rising, partial curve]
COc1ccc2[nH]cc(CCNc3ncncc3-c3ccccc3OC)c2c1 | 2.24 µM [rising, partial curve]
COc1ccccc1CNc1nc(-c2cccc(C#N)c2)nc2ccccc12 | 0.0501 µM [rising, full curve, poor fit]
Cc1ccccc1-c1nccc(NCc2cccnc2)n1 | 0.501 µM [rising, full curve, poor fit]
Nc1nc2c(c(=O)[nH]1)N=C(CNc1ccc(C(=O)NC(CCC(=O)O)C(=O)O)cc1)CN2 (stereo not given) | 14.1 µM [rising, partial curve, poor fit]
Nc1ccc(S(=O)(=O)Nc2cnc3ccccc3n2)cc1 | 25.1 µM [rising, partial curve]
O=c1c(-c2cccs2)nc2cnc(N3CCNCC3)nc2n1CCc1ccccc1 | 0.631 µM [rising, full curve, poor fit]
COc1cccc(Cn2c(=O)cnc3cnc(N(C)C)nc32)c1 | 0.00355 µM [rising, full curve, poor fit]
O=C(c1ccncc1)N1CCC2(CCCN(Cc3ccccc3)C2)CC1 | 0.562 µM [rising, full curve, poor fit]
COc1ccc2[nH]cc(CCNc3cc(-c4ccc(C(=O)N(C)C)cc4)ncn3)c2c1 | 0.316 µM [rising, full curve]
Cc1cnc(CNc2ncnc3ccc(-c4ccc(N(C)C)cc4)cc23)cn1 | 0.501 µM [rising, full curve, poor fit]
Cn1c(=O)c(-c2ccc(F)cc2)nc2cncnc21 | 0.0398 µM [rising, full curve, poor fit]
O=C(/C=C/c1ccc(OCc2ccccc2)cc1)c1cccs1 | 11.2 µM [rising, full curve]
O=C(c1ccc2c(c1)OCO2)N1CCCCC1 | 15.8 µM [rising, partial curve, poor fit]
COc1ccccc1CC(Cc1nc2ccccc2[nH]1)c1nc2ccccc2[nH]1 (stereo not given) | 4.47 µM [rising, partial curve]
Cc1c(C(=O)NN2CCOCC2)nn(-c2ccc(Cl)cc2Cl)c1-c1ccc(I)cc1 | 5.01 µM [rising, full curve]
COc1ccc(Oc2ncc3nc(-c4ccccc4)c(=O)n(C4CC4)c3n2)cc1 | 0.0158 µM [rising, full curve, poor fit]
O=c1c(-c2ccc(Cl)cc2)nc2cnc(N3CCOCC3)nc2n1CCc1ccccc1 | 3.16 µM [rising, full curve, poor fit]
COc1ncc2nc(-c3ccc(F)cc3)c(=O)n(CCC#N)c2n1 | 0.398 µM [rising, partial curve]
Cc1ccccc1-c1cc(N(C)Cc2ccco2)ncn1 | 14.1 µM [rising, partial curve, poor fit]
COc1ccc(CNc2ccnc(-c3c(C)noc3C)n2)c(OC)c1 | 1 µM [rising, partial curve]
COc1cccc(Cn2c(=O)c(-c3cccc(Cl)c3)nc3cncnc32)c1 | 0.562 µM [rising, full curve, poor fit]
CCCN(C/C=C\I)[C@@H]1CCc2cccc(O)c2C1 | 31.6 µM [rising, partial curve, poor fit]

same assay, conditions: Drosophila S3 cells, BODIPY lipid droplet/cell ratio, laser cytometry; measured here: lipid channel max response; cells loaded with oleic acid

SMILES | max response
Cn1c(=O)c(-c2ccc(F)c(F)c2)nc2cncnc21 | 40.4%
COc1ccc(Oc2ncc3nc(-c4cccc(C#N)c4)c(=O)n(Cc4cccc(OC)c4)c3n2)cc1 | 21.9%
O=[N+]([O-])c1cccc2c(Br)[nH]nc12 | 92.4% and 43.7% and -0.292%
CN(C)C(=O)c1ccc(-c2cc(N(C)Cc3ccco3)ncn2)cc1 | 49.8%
COCCNc1nc(-c2ccc(C(=O)N(C)C)cc2)nc2ccccc12 | 41.1%
CCNc1ncc2nc(CCc3ccccc3)c(=O)n(C[C@H]3CCCO3)c2n1 | 35.6%
C[C@@H](C1=C(CCN(C)C)Cc2ccccc21)c1ccccn1 | 80.4%
Clc1cccc(C=NC=Nc2cccc(Cl)c2)c1 | 101%
CNc1nc(-c2ccoc2)nc2ccccc12 | 44%
CC1(C)C(OC(=O)CCC(=O)O)CC[C@]2(C)C1CC[C@@]1(C)C2C(=O)C=C2[C@@H]3C[C@@](C)(C(=O)O)CC[C@]3(C)CCC21C (stereo not given in full) | 35.7%
COc1ccc(C(=O)N2CCC3(CCN(C(=O)Nc4ccccc4)CC3)CC2)cc1 | 40.7%
COC(=O)N1CCC2(CCCN(Cc3cc(C(F)(F)F)cc(C(F)(F)F)c3)C2)CC1 | 59.6%
c1csc(CNc2ccnc(-c3ccc4c(c3)OCO4)n2)c1 | 23%
CS(=O)(=O)Nc1cccc(-c2cc(NCc3cccs3)ncn2)c1 | 45.4%
COc1cc2c(C)c3c4c(cc(OC)c(OC)c4c2cc1OC)CCN3C | 72%
Cc1ccccc1-c1nc(N(C)C)c2ccccc2n1 | 29.1%
O=c1cnc2cnc(Oc3ccccc3)nc2n1Cc1ccc(F)cc1 | 43.9%
COc1ccc(Oc2ncc3nc(-c4cn(C)c5ccccc45)c(=O)n(C)c3n2)cc1 | 48.3%
COc1ccc2[nH]cc(CCNc3ncncc3-c3ccccc3OC)c2c1 | 12.8%
COc1ccccc1CNc1nc(-c2cccc(C#N)c2)nc2ccccc12 | 35.8%

SMILES | max response
Cc1ccccc1-c1nccc(NCc2cccnc2)n1 | 27.7%
Nc1nc2c(c(=O)[nH]1)N=C(CNc1ccc(C(=O)NC(CCC(=O)O)C(=O)O)cc1)CN2 (stereo not given) | 56%
Nc1ccc(S(=O)(=O)Nc2cnc3ccccc3n2)cc1 | 43.7%
O=c1c(-c2cccs2)nc2cnc(N3CCNCC3)nc2n1CCc1ccccc1 | -4.85%
COc1cccc(Cn2c(=O)cnc3cnc(N(C)C)nc32)c1 | 13.4%
O=C(c1ccncc1)N1CCC2(CCCN(Cc3ccccc3)C2)CC1 | 38.6%
COc1ccc2[nH]cc(CCNc3cc(-c4ccc(C(=O)N(C)C)cc4)ncn3)c2c1 | 28.1%
Cc1cnc(CNc2ncnc3ccc(-c4ccc(N(C)C)cc4)cc23)cn1 | 31.1%
Cn1c(=O)c(-c2ccc(F)cc2)nc2cncnc21 | 44.4%
O=C(/C=C/c1ccc(OCc2ccccc2)cc1)c1cccs1 | 85.4%
O=C(c1ccc2c(c1)OCO2)N1CCCCC1 | 109%
COc1ccccc1CC(Cc1nc2ccccc2[nH]1)c1nc2ccccc2[nH]1 (stereo not given) | 132%
Cc1c(C(=O)NN2CCOCC2)nn(-c2ccc(Cl)cc2Cl)c1-c1ccc(I)cc1 | 69.7%
COc1ccc(Oc2ncc3nc(-c4ccccc4)c(=O)n(C4CC4)c3n2)cc1 | 15.8%
O=c1c(-c2ccc(Cl)cc2)nc2cnc(N3CCOCC3)nc2n1CCc1ccccc1 | 44%
COc1ncc2nc(-c3ccc(F)cc3)c(=O)n(CCC#N)c2n1 | 17.2%
Cc1ccccc1-c1cc(N(C)Cc2ccco2)ncn1 | 41.8%
COc1ccc(CNc2ccnc(-c3c(C)noc3C)n2)c(OC)c1 | 11.6%
COc1cccc(Cn2c(=O)c(-c3cccc(Cl)c3)nc3cncnc32)c1 | 34.1%
CCCN(C/C=C\I)[C@@H]1CCc2cccc(O)c2C1 | 72.8%
